Assay results taken from publication PMC6919601, “Identification of Plasmodium dipeptidyl aminopeptidase allosteric inhibitors by high throughput screening” (PLoS ONE, 2019).
Among all 110,000 compounds or so, about 230 (0.21%) showed an effect of 50% or more. The list shows a part of the results.

Each compound was assayed against DPAP1 (Plasmodium falciparum, UniProt Q8IIJ9) (assay: primary screen, percent inhibition; read by cleavage of a fluorogenic dipeptide substrate; higher = more effect of the substance).
Chain of DPAP1 (Q8IIJ9 whole entry, looked up): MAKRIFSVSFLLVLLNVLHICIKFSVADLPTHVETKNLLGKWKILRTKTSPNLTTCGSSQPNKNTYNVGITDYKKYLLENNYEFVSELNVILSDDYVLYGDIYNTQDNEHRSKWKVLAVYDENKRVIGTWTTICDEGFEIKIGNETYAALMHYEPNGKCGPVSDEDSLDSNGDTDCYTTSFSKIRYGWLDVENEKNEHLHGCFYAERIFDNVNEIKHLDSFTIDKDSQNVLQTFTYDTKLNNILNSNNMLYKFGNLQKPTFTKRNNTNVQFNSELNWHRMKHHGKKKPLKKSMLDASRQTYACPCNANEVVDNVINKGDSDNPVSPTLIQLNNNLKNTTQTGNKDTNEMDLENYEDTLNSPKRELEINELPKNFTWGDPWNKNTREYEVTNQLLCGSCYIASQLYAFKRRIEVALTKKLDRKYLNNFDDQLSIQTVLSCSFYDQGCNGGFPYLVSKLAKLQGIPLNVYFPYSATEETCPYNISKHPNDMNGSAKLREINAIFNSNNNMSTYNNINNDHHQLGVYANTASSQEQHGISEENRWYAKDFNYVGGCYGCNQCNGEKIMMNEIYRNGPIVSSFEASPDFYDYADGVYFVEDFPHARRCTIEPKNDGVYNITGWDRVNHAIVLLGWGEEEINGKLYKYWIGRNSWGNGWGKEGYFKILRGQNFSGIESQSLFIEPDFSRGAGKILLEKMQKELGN
Parameters: species or system P. falciparum D10 trophozoite lysates; single well
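Further: 30 min substrate incubation versus DMSO and 10 µM JCP410 controls.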

Row | SMILES | % Inhibition @ 10 uM [%]
1 | CCOC(=O)c1cc2cccc(Cl)c2[nH]1 | -2.4
2 | CCOP(=O)(CC(=O)O)c1ccccc1 (stereo not shown) | -5.9
3 | CCCCCc1ccc(-c2ccc(OC)cc2)nc1 | -0.436
4 | COc1ccc(-c2c(C(F)(F)F)oc3cc(O)ccc3c2=O)cc1 | -0.641
5 | O=c1c2ccccc2nc2c3ccccc3c(N3CCCCC3)nn12 | 15.1
6 | N#CCC(=N)Nc1sc2c(c1C#N)CCCC2 | 11.6
7 | O=C1CC(c2ccc(S(=O)(=O)NCCOc3ccccc3)cc2)CN1 (stereo not shown) | -2.5
8 | Cc1ccc2c(c1)c1c(n2CCC#N)CCN(C)C1 | 1.63
9 | CCN(CC)CCn1c2ccccc2c2c(C)cc(=O)sc21 | 1.17
10 | CN1C(c2ccccc2)CC(C)(O)CC1c1ccccc1 (stereo not shown) | -4.11
11 | COC(=O)c1cc(S(=O)(=O)N2CCN(Cc3ccc4c(c3)OCO4)CC2)cn1C | -5.86
12 | C=CCc1ccccc1OCCOc1c(OC)cc(/C=C2/C(=N)N3C=CSC3=NC2=O)cc1OC | -5.28
13 | CCN(C(=O)CCCC(=O)N(CC)c1ccccc1)c1ccccc1 | -0.413
14 | O=C(/C=C/c1ccc(Cl)cc1)OCC(=O)c1ccc(Br)cc1 | 1.76
15 | Cc1ccc(N(CC(=O)NCc2ccncc2)S(=O)(=O)c2ccc(Cl)cc2)cc1C | 0.563
16 | CCCCC(NC(=O)[C@H](CC(C)C)NC(=O)OCc1ccccc1)C(=O)c1nnc(-c2ccncc2)o1 (stereo partly shown) | -5.2
17 | Cc1ccc(S(=O)(=O)Cc2nc(-c3ccc(C(=O)NCc4cccc(C)c4)cc3)oc2C)cc1 | 0.28
18 | O=C1C=C(Nc2ccc(Cl)cc2Cl)CC(c2ccco2)C1 (stereo not shown) | -2.87
19 | Cc1ccc(C2CC(=O)NC(SCC(=O)Nc3ccc(Br)cc3)=C2C#N)s1 (stereo not shown) | -1.64
20 | CC(C)NC(=O)c1cnn2c(C(F)(F)F)cc(-c3ccc(Br)cc3)nc12 | -0.891
21 | COc1ccc(S(=O)(=O)N(C)CC(=O)Nc2ccccc2F)cc1 | -6.25
22 | CCOc1ccccc1C(=O)NC(CC)c1ccc(C)cc1 (stereo not shown) | 4.83

Row | SMILES | % Inhibition @ 10 uM [%]
23 | C=CCNC(=O)c1ccc(Cn2c(=S)[nH]c3c([nH]c4ccc(OC)cc43)c2=O)cc1 | 1.15
24 | O=c1c(Oc2ccccc2Br)coc2cc(O)ccc12 | -4.93
25 | CCN(CC)Cc1ccccc1C(O)c1ccccc1 (stereo not shown) | -1.72
26 | O=C(O)CC(CNS(=O)(=O)c1cccc2nsnc12)c1ccccc1 (stereo not shown) | -1.24
27 | CC1=C(C(=O)N2CCCCC2)C(c2ccc(C(F)(F)F)cc2)C2=C(O)CC(C)(C)CC2=N1 (stereo not shown) | 3.45
28 | NS(=O)(=O)c1ccc(CCNC(=O)CNS(=O)(=O)c2cccs2)cc1 | -6.4
29 | c1ccc(CN2CCC(NC3CCSC3)CC2)cc1 (stereo not shown) | -3.6
30 | CCOc1ccc2c(c1)C(SCC(=O)N1CCC3(CC1)OCCO3)CC1(CCCCC1)O2 (stereo not shown) | -5.82
31 | CC(C)c1ccc(S(=O)(=O)c2cc3ccccc3oc2=O)cc1 | 2.12
32 | Cc1ccc(CCNC(=O)Cn2ncn3c(cc4sccc43)c2=O)cc1 | 3.4
33 | CCCCn1nnnc1NCc1cc(Cl)c(OC)c(OC)c1 | -4.11
34 | CCOc1ccc(/C=C2\SC(N3CC(C)OC(C)C3)=NC2=O)cc1 (stereo not shown) | 3.59
35 | O=C(C1COc2ccccc2O1)N1CCCC1 (stereo not shown) | 3.61
36 | CCN(CC)c1nc(NC(C)(C)C)nc(NC(C)(C)C)n1 | -2.51
37 | C=CCNC(=O)CCCc1nc(-c2cc(OC)c(OC)c(OC)c2)no1 | -4.75
38 | Cc1ccc(C(=O)Nc2ccc(N3CCOCC3)cc2)cc1[N+](=O)[O-] | -0.687
39 | O=C(c1ccc(CS(=O)c2cccc(Cl)c2)o1)N1CCC(N2CCCCC2)CC1 (stereo not shown) | 3.1
40 | CCCC(C(=O)N1CCOCC1)N1C(=O)C2C3C=CC(C3)C2C1=O (stereo not shown) | -4.48
41 | COc1cc(CN2CCN(Cc3ccc(OC)c(OC)c3)CC2)cc(OC)c1 | -5.19
42 | CCCN1CCN(C(=O)c2nc(-c3ccc(C)cc3)n3c2CCCCC3)CC1 | 0.589
43 | COc1ccc(-c2csc(/C(C#N)=C\Nc3cccc(C)c3)n2)cc1 | -0.661
44 | COc1ccc(OC)c(N(CC(=O)N2CCOCC2)S(=O)(=O)c2ccccc2)c1 | 1.57

Row | SMILES | % Inhibition @ 10 uM [%]
45 | Cc1nnc(NC(=O)[C@H]2O[C@@H]3OC(C)(C)O[C@@H]3[C@H]3OC(C)(C)O[C@H]32)s1 | -5.36
46 | CCN(CC)C(=O)CSc1nc(C)cc(C)c1C#N | 21.4
47 | O=C(NCCc1cccs1)C1CCN(c2nc3ccccc3n3cccc23)CC1 | -2.58
48 | Cc1cc2cc(-c3ccccc3)cn2c(N2CCOCC2)c1C#N | 2.36
49 | CCCCN(C)C(=O)Cc1c(C(=O)O)[nH]c2ccc(Cl)cc12 | -6.58
50 | CC1(C)CC(=O)C2=C(C1)N(c1nc[nH]n1)C(N)=C(C#N)C2c1cccs1 (stereo not shown) | -6.51
51 | CCOc1ccccc1/C=C1N=C(/C=C/c2ccc(Cl)cc2)OC/1=O | 2.44
52 | CCOC(=O)c1c(N)nn(C(=O)C(C)C)c1-c1ccccc1 | -3.64
53 | CCOCCCNC(=O)C1c2ccccc2C(=O)N2CCc3ccccc3C12 (stereo not shown) | -3.77
54 | O=C(O)Cn1c(SCCOc2ccccc2F)nc2ccccc21 | 13.2
55 | CC1CCCCN1C(=O)c1nn(C)c2c1CSc1ccccc1-2 (stereo not shown) | 7.85
56 | CC(C)Cn1c(=O)c(C#N)cc2c(=O)n3ccccc3nc21 | 2.73
57 | COc1ccc(/C=N/OCC(=O)Nc2nc3ccccc3s2)cc1 | 0.189
58 | COc1ccc(C(=O)N(Cc2cccs2)C2CCS(=O)(=O)C2)cc1 (stereo not shown) | 5.3
59 | CCOc1ccc(CN2CCN(c3ccc(C(C)=O)cc3)CC2)cc1 | -2.36
60 | O=C(NCC1CCCO1)c1ccc(CS(=O)(=O)Cc2ccccc2Cl)o1 (stereo not shown) | -3.58
61 | COc1ccc(-c2cc3c(ccc4ccccc43)oc2=O)cc1 | -0.591
62 | Clc1ccc(-c2noc3ncnc(N4CCOCC4)c23)cc1 | -0.495
63 | CCCOC(=O)C1=C(C)NC(=O)NC1c1ccccc1Br (stereo not shown) | -5.63
64 | CC1CC2(C)CC(C)C1(COC(=O)Nc1ccccc1)CO2 (stereo not shown) | 5.01
